Source: the supplement of paper PMC3334620
Over roughly 33,000 sequences, “E-score (-0.5 to 0.5)” has its median near -0.036; the highest 2% begin near 0.37. Some of the results follow.

The sequences below were run against T1, Yer064c (UniProt P40041) (assay: PBM E-score (8-mer binding enrichment) (E-score (-0.5 to 0.5)); higher = stronger / more preferred TF binding; most listed sequences are background and not binding sites). Conditions: protein concentration: 200 nM; construct: GST-full length.
T1 sequence: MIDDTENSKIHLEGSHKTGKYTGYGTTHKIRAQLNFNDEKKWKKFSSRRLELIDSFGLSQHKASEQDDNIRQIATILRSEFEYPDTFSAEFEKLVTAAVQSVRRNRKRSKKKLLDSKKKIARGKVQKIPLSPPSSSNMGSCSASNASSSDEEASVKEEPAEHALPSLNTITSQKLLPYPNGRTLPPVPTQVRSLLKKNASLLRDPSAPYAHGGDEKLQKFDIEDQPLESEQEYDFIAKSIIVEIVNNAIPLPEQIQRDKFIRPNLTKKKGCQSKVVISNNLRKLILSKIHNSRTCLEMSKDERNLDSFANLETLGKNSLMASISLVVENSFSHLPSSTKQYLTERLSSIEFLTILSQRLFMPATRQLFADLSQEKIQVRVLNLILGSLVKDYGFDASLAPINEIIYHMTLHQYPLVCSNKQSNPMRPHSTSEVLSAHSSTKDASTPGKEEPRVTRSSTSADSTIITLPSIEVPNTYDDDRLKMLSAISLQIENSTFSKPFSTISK
Outline: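 GST-tagged yeast TFs (full-length or DNA-binding domain) were made by PURExpress in vitro transcription/translation and applied at about 100-200 nM to universal all-10-mer Agilent arrays. The arrays were made double-stranded by primer extension, on fresh or once-stripped slides. Bound protein was detected with fluorescent anti-GST, and scans were normalised with masliner. Each ungapped eight-base word, pooled with its reverse complement, received an E-score (modified Wilcoxon-Mann-Whitney statistic) from the Universal PBM Analysis Suite.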

Sequence | PBM E-score
CAAAAATC | 0.0115
ATGCTAAA | 0.0382
AACACGCG | 0.0221
AAAATTTG | -0.00395
GGTGCGTA | -0.255
ATGGTGTA | -0.0684
AGCGCTCC | -0.244
GGAGCACA | -0.0954
GCGGATCA | 0.0842
TCTCACCA | -0.117
CATATGCC | -0.107
ATTTGCCA | -0.0327
AGATAACT | 0.0858
AAGGGCCC | -0.112
ATCACGCG | 0.169
ATACTAGG | -0.0478
AAAAGGTG | -0.0707
ATTCAAGG | 0.133
AACTGAGA | 0.113
GATGATAA | -0.017
CACAAGCA | -0.0637
GGGCAACA | -0.0991
ACCAGCGT | -0.0354
CCCAATCG | -0.0382
ATCATGGG | 0.138

Sequence | PBM E-score
AGCGTACA | -0.0265
AGAAGTTA | -0.0371
CCCCCGAG | -0.245
AGGCCCGG | -0.262
GGTAAGAC | 0.127
CTCAAATA | 0.0245
AGCTGGAT | -0.0706
CTTATACA | 0.0544
CTGATTTA | 0.238
ACAAGGCC | -0.244
CCTTGAAC | -0.0599
GACACTGA | 0.0567
AAACTGGT | -0.206
ACCAATCC | -0.187
GTAGCACA | 0.144
GAGTGTAC | -0.0806
AGAGTTTA | 0.0546
CACGTCCG | -0.285
AGTGACGA | 0.218
AGAGACAT | 0.208
CGGACGGA | -0.179
GGGGTTAA | 0.116
ATGTTCCG | -0.0922
AACCGGAT | -0.043
CCCGCACC | -0.217

Sequence | PBM E-score
ACAATTAG | -0.0116
GATCATCC | 0.171
AGCGACTA | 0.391
CTCGCGCC | -0.0984
ACATCCTA | 0.0331
CAAGGCTA | 0.0888
ACTCTTTA | 0.241
GTGCGTGA | 0.104
AATGCGTA | 0.00743
CTAATAAC | 0.0519
AGTATAGG | -0.00011
CATGCAAC | -0.139
AAAAGACC | -0.145
CCAGCGAC | 0.014
ATGCCGCC | -0.282
CTTGCATC | -0.152
CTTGCGAA | 0.00222
ACTCGTTC | 0.257
ATCGTCGG | 0.172
ACTGCGTC | -0.00926
GAACGCAA | 0.0733
ACGGAAAT | 0.0967
AACAAAAA | 0.141
AGGTTAGG | -0.104
ACCCAGGT | -0.175

Sequence | PBM E-score
GCGAGTCA | 0.485
CGCAACTC | 0.00054
TAGCACCA | -0.204
CATAATGG | -0.0492
GTCGAATA | -0.165
CCGTTACC | -0.0482
CACAGCGA | 0.138
GATATGAA | -0.0315
AGACGGAG | 0.00172
ATACGCTA | 0.00775
ATCTTAGA | 0.0924
ATTATGTA | 0.115
ACCAGTCT | 0.0632
CACTAATG | -0.127
ACTTGAAC | 0.115
ACTCCCCC | -0.045
ACGTCTGG | -0.114
GTGACGCA | 0.0072
AAGTATAC | 0.00489
CGTCTCTC | -0.0156
ACCGGTTG | -0.196
ACTCTTCA | 0.217
AACTCTTG | -0.0938
AACACGGC | -0.1
AGTCTGGG | 0.0422

Sequence | PBM E-score
ATAAGGCC | -0.255
AGACAGAT | -0.0587
AGCAATGC | -0.218
AGATGGGA | -0.239
AGTCGATA | 0.179
TGTCATAA | 0.0821
GCGACTCC | 0.39
ATTCCTAA | 0.183
CTCTGCAA | 0.019
CGACGTTC | -0.184
AAACGAAG | -0.0255
GATCAAAA | 0.103
GTGCGCCA | -0.227
TGGCTAAA | 0.306
GTAAAAAA | -0.0393
ACTCCTCG | 0.19
GAGCGATA | -0.249
ACAGTGCG | -0.28
GCGCACAA | -0.0609
AAGAATAT | -0.0669
CTAGTTGC | -0.0798
AGTCGTTA | 0.361
CGTCCCCC | -0.148
ACGGTGTA | -0.0193
ATAATCGG | 0.117

Sequence | PBM E-score
GCGGAAAC | -0.252
ATCTGATG | -0.0797
ATACCATC | -0.0786
CCTTGTTA | 0.0372
GTATCTAA | 0.0316
GGCAACAC | -0.17
GAACATAC | -0.137
ACAAAAAC | -0.0516
TAACGAAA | 0.106
AGGCAGTA | -0.0516
TCCGTACA | 0.075
GACTACAA | 0.402
ACGAGCGA | -0.0924
GAATGGCA | -0.0851
CAGGAGGA | -0.175
CGCAGATA | 0.101
ATCTCGAC | 0.0974
CTCGGTGC | -0.148
AAATTTAC | 0.164
GAAAAACC | -0.142
CGCACTGC | -0.188
CGTTTAAG | 0.112
AAGCGGGG | 0.0204
ACGCAGGG | 0.0603
AACCATCG | 0.286

Sequence | PBM E-score
AGCTCAGC | -0.214
GGTACCGA | -0.0763
CTCACGGC | -0.107
ATTGTACC | -0.00593
CACAGCTG | -0.0781
TACGCCGA | -0.119
GGCACTTA | -0.212
AAATAGGG | -0.227
AGTCTTAG | 0.408
CAGTTAGG | -0.142
ACCTTGAG | 0.145
CAGAATGG | 0.0776
ACCAGGGT | -0.137
GAACAGTA | 0.0874
GGGTAAAC | 0.0204
CCGGCCCC | -0.188
GTTATACA | 0.0307
AACTGTAC | -0.128
GTGAATCA | 0.48
AGCGAATA | 0.0298
CTGATGTA | 0.00184
TCAATGCA | 0.0319
